{"source": "the supplement of paper PMC12632987", "binders": {"B1": {"name": "GBRAP_26_5485 (protein)", "chain": "GTREILDALEAEVRAILADEPAEVQAAVVAEAIDRAIEFEEVVEENVNNQEKIKKAKEEALKELREFLKDLGVPEEKQKAVVEALAKALEKIEKHILEKA"}, "B2": {"name": "GBRAP_160_4170 (protein)", "chain": "SEKVEEAIKEIEELFEEAKEMVKGQSAEERAAIVAVTFGEIRLLLEEKGLLTDELDEKIEELEKELVDTILANPDLTDEEIAALLDETLEKLKEALKKSS"}, "B3": {"name": "GBRAP_9_7144 (protein)", "chain": "REEMVKKIREVLEDMFEEVSEIVPEEVKPLVDKLRKEALAAFDKVVADPSATEQEIVDAAKQLIDDFAEAVSAKVSPEIAKMVEAIALTAKEEIDEIYEE"}, "B4": {"name": "GBRAP_184_5082 (protein)", "chain": "KLYEAEIVAETEEELLKKVEEVLKEAAELKADLVVLVDAKGLNVELAIKIIEKFGKAKKEGKVKNVTIGFTNEFSEEEVDKLVKAADEAGVKVVLPLKDE"}, "B5": {"name": "GBRAP_73_6498 (protein)", "chain": "LTDTGLTDEEIADIVDHENDIFNGGEEAYEAAVARIRAALPELSPERQELLRRILEAAERAKKKDKLLAYELVALALAVVEGLDLEKARRALEALEKRLE"}, "B6": {"name": "GBRAP_35_5583 (protein)", "chain": "EIEEIILDTVEDFAEATIEAIETEDIETVISLTKAFIKTVKLAIKDLKNNLEALKKIKEEIEKVIKALKEKRSDNPEIQELIKELEKLLKEAEELAKKNE"}, "B7": {"name": "GBRAP_78_6689 (protein)", "chain": "EIEELLDKAIEHLGKAAKILAKMNTEEALELLDKVIDAASILTEALLGETKLEDLKEALKILKEVIKELKKIDTEEAKEALKYVEEAKEHVEKAIKLLEE"}, "B8": {"name": "GBRAP_184_5152 (protein)", "chain": "TTVNRYIDAKTVEEAIEKARKAFKEAKAAGKKLTLLIDAEGLSVEEVERLMREVVALAKEEGLEDANIIVEVEADEEEADRIIEIADKLGVRVVVALEEP"}, "B9": {"name": "GBRAP_14_3827 (protein)", "chain": "MEEIEKVLEEMKKELNELFKKISPEKAEELSKAVDEKIEEALKKIKETGDIEKAMEEAKEELVKEVEEILKDEPEEVRATAKAAVRILFDEALEEIEELL"}, "B10": {"name": "GBRAP_128_3214 (protein)", "chain": "STEEAVEQVRELLERIKTADPEERRRLARELAELVASSDVETAEAMLEVVEELAPELSEEDLEILMDAFLEASRKTDDEIGLILTEMAIIMGSQLIELEE"}, "B11": {"name": "GBRAP_128_3554 (protein)", "chain": "STEEVVEKAKELLEKIKNSDEEEARKYAEELVDLLASVDEESREAIVEVILEKLPELSVEQLEILADVFRERRPEVDEDVANALAEIEVEALNVALEKEE"}, "B12": {"name": "GBRAP_52_6246 (protein)", "chain": "MAARLRALAQEILDLVLAGDYEGARALAREVARTLNDEELEAFFDEFAALAKTQPKENLEKVWKATEIIAEVLEEEGKSEELVDLLEAKTAAALVEVLQA"}, "B13": {"name": "GBRAP_52_5954 (protein)", "chain": "AAARIQAQVDRLAALVRAGDLDAARALARELAETLDEEELRAFAAAVAAAVAAAPADELDAAFRLAEIVADELEREGRDEELAGDLLAAAAAALYAKEQA"}, "B14": {"name": "GBRAP_11_2610 (protein)", "chain": "KKETLKRLAELAEKAAEAVERLLEEGVDNEELLREIEELIEELAKEVEEHGDEADKTDVEVIRELWRKALEDPENRREYLEQLRAALRVFAGNYLLKIEE"}, "B15": {"name": "GBRAP_83_6892 (protein)", "chain": "ETITVVGADAASVEAAIDAAIDLSTNEGYEVTLELLVTPEALPALKAGLERLAAAGVKVDLHVVVVARTREEAEAAAAELRAFAEASGAASSVTVETEVV"}, "B16": {"name": "GBRAP_160_4317 (protein)", "chain": "AAEYEALKKEITEIFDEAKELIEGQTPEEKLTIVRVALGDVLLLADENPAISDELEDQIAAIADAAEARVEANPDLTEEEVKALLDEAEDAILALIDKAA"}, "B17": {"name": "GBRAP_125_2980 (protein)", "chain": "PTEEELAALRRLARALGLDEAEAEELAELARAHSLRGALYALLAALGEEELAELVEKLTEAEVAEVLAEVAAYLAAHPDATPEEVLARLRELAKAALAKR"}, "B18": {"name": "GBRAP_160_4319 (protein)", "chain": "SALLEKLKKEIKEIAEEAIKLIEGESPEERKTIVKVALGEIVLLAVENPEISDELEDEIAAIADAAEAELDANPNLTEEEVKALLKEAVDKILAKIKASE"}, "B19": {"name": "GBRAP_160_4374 (protein)", "chain": "SEELKKLAKEIEKLKKEFEEEAKDLSPEETRILAIGVLSEVAALVFENEAVSEEVEDKIFEIIDEAIKKIRENTDASPEEIVKITKDALEKIIKLVKEEA"}, "B20": {"name": "GBRAP_52_5973 (protein)", "chain": "MREEARAFVERAVALQLAGDEAGLRALAEAFAATADDEQLRVLAEAVRELVEAADPERAEAAVEAALRLEDVLLAAGRDEALADEIVAAAAAAAVARLQR"}, "B21": {"name": "GBRAP_184_5183 (protein)", "chain": "MVAEYTIEAKNVEELKEKLDEIAKEIKGKKVELYVILEAEKVTVEMAKAALEKLGEIKAAGYATRITVLIEGEVSEEVVDVIVEEAKKAGVNVTIALPEE"}, "B22": {"name": "GBRAP_9_7177 (protein)", "chain": "EQEKKEKILEVVKEEIELALEVIPEEKREEAKKLFEEILAELKKAVEDPSVTLEELLELLEKLIEELIEKLKKILSKEVVNQVEAVLGTAILEAEEIVEE"}, "B23": {"name": "GBRAP_160_4549 (protein)", "chain": "KEKVEELIEELDEMAEFIKEQVGKVSIDELIAFVDVEFGSFILEGIEKGVLSDELEDKLAEIRDELLARLRANADASPEEKKAMIDEAAKKAKELLKEES"}, "B24": {"name": "GBRAP_96_7091 (protein)", "chain": "MLEEVKKLVKKAIEAKNTNEEEFNKYVKELLKYPAELIAKALVELGVSDEEIVTLSRKMFELDPSKIGEILEALVEHIPSSAVSQVAKVAEEIEKELEAK"}, "B25": {"name": "GBRAP_35_5602 (protein)", "chain": "ETDEFAADSLIDQIEALVEGVPELDPETLAAIGETLLRDAEELIEDLKNNAELLERIAEALERLAEALERHHGDNPLMQEVLARVRELLERARRLIEEIK"}, "B26": {"name": "GBRAP_80_6861 (protein)", "chain": "AEAALAAARAALKALLPEQAALVDEVVAIAQQLGVPLADIADLLEALVELAKVDKELAAELLEELLEDLKEELEEGDSANALATVRGYAGEALMEAEELE"}, "B27": {"name": "GBRAP_80_6848 (protein)", "chain": "AEERLAAALAALEALLPEVAEEARELVALARELGVPDEEIAAFLEALNELAKLDPELAAELIREALEDMKELKEEGDSENALAVVRGYTGDALMAAEELE"}, "B28": {"name": "GBRAP_160_4241 (protein)", "chain": "SMRIEELEKEIREEGRLLVEALLEVPPSQWRAIARAFAGDIVQLVIEDENASDEMEDAVDEKAEAMVERLVAAKDASPEEIKALVDEGVDEIIETVKELS"}, "B29": {"name": "GBRAP_11_2667 (protein)", "chain": "KKEVYKKAAELAKELAKTVKKLIEEGIDNEELIKKAEELLKELKELAKKELDKASQKEVEVLEEIWKEAKEDKENSLKYWELLLAGARVLEGNFLLEYDE"}}, "note": "Whole data set: some 4,500 sequences, median “median log2 fold change of GCK-ALFA target abundance (FLAG IP / Myc IP barcode read proportion)” near 0.078, cut for the lowest 2% near -0.6. The list shows a part of the results."}
{"molecular_target": "GABARAP, O95166", "sequence (O95166 whole entry, the tested form may be a part)": "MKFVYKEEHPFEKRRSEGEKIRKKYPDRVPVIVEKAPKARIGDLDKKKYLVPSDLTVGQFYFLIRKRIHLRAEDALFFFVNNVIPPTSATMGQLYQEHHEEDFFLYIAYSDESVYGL", "assay": "median log2 fold change of GCK-ALFA target abundance (FLAG IP / Myc IP barcode read proportion) (log2 ratio); each designed protein is fused to an ALFA-tag nanobody in HEK293 cells to bring the named protein to FLAG-tagged glucokinase (GCK); Myc marks an untargeted standard; higher = target protein stabilised (more abundant)", "settings": "target protein: 3xFLAG-MCP-GCK-ALFA reporter; HEK293 landing pad (RPLP)", "procedure,_shortened": "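An ALFA-nanobody-fused binder library was recombined into HEK293 landing-pad cells and induced with 2 μg mL^−1 doxycycline. Cells were transfected with a plasmid expressing a FLAG-tagged target and a Myc-tagged standard. After 48 h, lysates underwent anti-FLAG and anti-Myc immunoprecipitation, and circular RNA barcodes were reverse transcribed, amplified and sequenced. Target abundance is the per-binder median log2 ratio of FLAG to Myc barcode read proportions. Barcodes needed ≥10^−7 proportion in both replicates, binders ≥3 barcodes per replicate, and a 10^−6 pseudocount was added; the two replicates were pooled.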"}
{"binder": "B1", "median log2 fold change": 0.243}
{"binder": "B2", "median log2 fold change": 0.214}
{"binder": "B3", "median log2 fold change": 0.134}
{"binder": "B4", "median log2 fold change": -0.177}
{"binder": "B5", "median log2 fold change": -0.718}
{"binder": "B6", "median log2 fold change": -0.172}
{"binder": "B7", "median log2 fold change": 0.137}
{"binder": "B8", "median log2 fold change": 0.0952}
{"binder": "B9", "median log2 fold change": -0.342}
{"binder": "B10", "median log2 fold change": -0.53}
{"binder": "B11", "median log2 fold change": 0.0568}
{"binder": "B12", "median log2 fold change": -0.0714}
{"binder": "B13", "median log2 fold change": -0.0538}
{"binder": "B14", "median log2 fold change": 0.0826}
{"binder": "B15", "median log2 fold change": 0.102}
{"binder": "B16", "median log2 fold change": -0.166}
{"binder": "B17", "median log2 fold change": 0.0397}
{"binder": "B18", "median log2 fold change": 0.0853}
{"binder": "B19", "median log2 fold change": -0.0146}
{"binder": "B20", "median log2 fold change": 0.0374}
{"binder": "B21", "median log2 fold change": -0.0284}
{"binder": "B22", "median log2 fold change": -0.0604}
{"binder": "B23", "median log2 fold change": 0.249}
{"binder": "B24", "median log2 fold change": 0.176}
{"binder": "B25", "median log2 fold change": -0.011}
{"binder": "B26", "median log2 fold change": -0.579}
{"binder": "B27", "median log2 fold change": -0.203}
{"binder": "B28", "median log2 fold change": -0.0817}
{"binder": "B29", "median log2 fold change": -0.102}
